{"source": "PubChem BioAssay AID488969", "about": "(Vanderbilt High Throughput Screening Facility, 2010)", "note": "The full ranking holds about 110,000 compounds; the median of “z-score” is about -0.1, and the highest 2% start at about 2. This is one part of the list. Active and inactive are the calls of the source.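 How the source made its calls: active means z-score in the third read window above 3 or below -3; inactive means the rest.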"}
{"molecular_target": "Metabotropic glutamate receptor 8 (Rattus norvegicus) (UniProt P70579)", "sequence (P70579 whole entry, looked up)": "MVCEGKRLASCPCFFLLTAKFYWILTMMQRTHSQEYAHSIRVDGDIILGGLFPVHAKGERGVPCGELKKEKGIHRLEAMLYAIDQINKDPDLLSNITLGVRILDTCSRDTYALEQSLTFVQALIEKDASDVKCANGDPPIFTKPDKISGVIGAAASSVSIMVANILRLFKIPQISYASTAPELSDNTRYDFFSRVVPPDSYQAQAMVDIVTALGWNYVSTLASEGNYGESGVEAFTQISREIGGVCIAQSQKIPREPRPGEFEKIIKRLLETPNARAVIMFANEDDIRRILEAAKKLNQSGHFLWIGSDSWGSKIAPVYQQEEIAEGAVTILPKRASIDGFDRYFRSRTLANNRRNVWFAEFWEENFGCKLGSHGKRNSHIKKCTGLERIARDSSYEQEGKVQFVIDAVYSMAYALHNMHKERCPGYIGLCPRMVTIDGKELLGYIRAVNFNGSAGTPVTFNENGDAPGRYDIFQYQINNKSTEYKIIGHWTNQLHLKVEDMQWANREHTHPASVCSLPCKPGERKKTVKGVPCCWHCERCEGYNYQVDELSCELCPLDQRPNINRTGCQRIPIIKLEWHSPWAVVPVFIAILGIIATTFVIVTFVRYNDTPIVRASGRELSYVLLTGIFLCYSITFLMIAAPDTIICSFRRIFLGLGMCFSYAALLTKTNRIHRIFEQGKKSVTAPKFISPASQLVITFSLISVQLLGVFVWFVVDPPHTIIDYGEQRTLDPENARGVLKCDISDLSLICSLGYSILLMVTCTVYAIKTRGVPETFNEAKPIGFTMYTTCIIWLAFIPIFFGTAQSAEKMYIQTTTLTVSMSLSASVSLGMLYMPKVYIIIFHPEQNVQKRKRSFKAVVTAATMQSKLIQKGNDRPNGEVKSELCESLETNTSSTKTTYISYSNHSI", "assay": "mGluR8 Gi/Go-coupled signaling modulation – cell-based, rat, thallium flux, HTS, primary screen (AID 488969)", "details": "HEK293 rat mGluR8, GIRK (G protein-gated inwardly rectifying potassium channel) thallium flux, FluoZin2; at 10 µM; stronger effect = higher value; submaximal glutamate (EC20) added with thallium"}
{"molecule": "COc1ccc(-c2oc3ccccc3c(=O)c2OC(=O)c2ccc(C)cc2)cc1", "z-score": 0.707}
{"molecule": "O=C(COc1ccc(Cl)cc1Cl)Nc1c(-c2cccs2)nc2ccccn12", "z-score": -0.0767}
{"molecule": "Cc1onc(-c2ccccc2)c1C(=O)Nc1ccc2c(c1)OCO2", "z-score": -0.564}
{"molecule": "O=C(Nc1ccccc1)N(CCN1CCOCC1)Cc1ccccc1F", "z-score": 0.227}
{"molecule": "CCOc1cc(C(=O)OC(C)C(=O)Nc2ncc(Cl)cc2Cl)ccc1OCC(=O)N1CCOCC1", "note": "(stereo unspecified)", "z-score": 0.507}
{"molecule": "O=C(NC(=S)NCC1CCCO1)c1cccs1", "note": "(stereo unspecified)", "z-score": 0.35}
{"molecule": "COC(=O)C1CCN(c2cc(=O)n(Cc3ccc(F)cc3)c(=O)[nH]2)CC1", "z-score": -0.228}
{"molecule": "CNC(=S)Nc1cccc2[nH]ncc12", "z-score": 0.303}
{"molecule": "CC1(C)Oc2ccc3ccc(=O)oc3c2C(N2CCCCC2)C1O", "note": "(stereo unspecified)", "z-score": 0.898}
{"molecule": "Cc1cccc(NC(=O)CSc2nc3nc4c(cc3c(=O)n2-c2ccccc2)CCCC4)c1", "z-score": -0.318}
{"molecule": "CC(C)C(NC(=O)CSCc1ccc([N+](=O)[O-])cc1)C(C)C", "z-score": -0.524}
{"molecule": "Fc1ccc(Oc2cc(N3CCOCC3)nc(-c3ccccc3)n2)c(F)c1", "z-score": -0.112}
{"molecule": "COc1ccc2c(c1OC)C(=O)N1c3ccccc3C(=O)N(c3ccc(F)cc3)C21", "note": "(stereo unspecified)", "z-score": -0.452}
{"molecule": "CCC(C)OC(=O)c1cc(C)nc2c(Br)cc(Br)cc12", "note": "(stereo unspecified)", "z-score": 0.0924}
{"molecule": "Cc1c(C(Nc2ccccn2)c2ccc(Cl)cc2)c(=O)n(-c2ccccc2)n1C", "note": "(stereo unspecified)", "z-score": -1.31}
{"molecule": "O=C1NC2=C(C(=O)c3ccccc32)C(c2ccccc2)N1", "note": "(stereo unspecified)", "z-score": -0.485}
{"molecule": "O=C(NCc1cccnc1)/C(=C/c1ccc(-c2ccc(Cl)cc2)o1)S(=O)(=O)c1ccccc1", "z-score": -0.0548}
{"molecule": "N#Cc1ccc(-c2ccccc2)nc1SCC(=O)c1cccc(Cl)c1", "z-score": -0.211}
{"molecule": "COc1cc(C2C(C#N)=C(N)Oc3c2ccc2ccccc32)ccc1OCC(=O)Nc1ccc(C)cc1", "note": "(stereo unspecified)", "z-score": -0.256}
{"molecule": "Cc1c(-c2cccc(NC(=O)c3cccs3)c2)nc2ncccn12", "z-score": -0.526}
{"molecule": "CCCC(=O)Nc1cccc(NC(=S)NC(=O)C(C)Oc2ccc(Cl)cc2Cl)c1", "note": "(stereo unspecified)", "z-score": -0.0105}
{"molecule": "O=C1OC(c2ccccc2)C2(CCCC2)C(=O)C12CCCC2", "note": "(stereo unspecified)", "z-score": -0.175}
{"molecule": "CO/N=C(/CNC(=O)c1ccccc1Cl)c1ccc(Cl)cc1", "z-score": -0.171}
{"molecule": "Nc1ccc(C(=O)Nc2ccccc2C(=O)O)cc1", "z-score": 0.886}
{"molecule": "Nc1c(C(=O)C2CC2)sc2nc(-c3cccs3)cc(C(F)(F)F)c12", "z-score": 0.0123}
{"molecule": "CCCc1nnc(NC(=O)Cn2c(=O)oc3cc(Br)ccc32)s1", "z-score": -0.559}
{"molecule": "CC(=O)Nc1cc(C(=O)NCc2ccco2)ccc1Sc1ccc(C)cc1", "z-score": -0.055}
{"molecule": "Cc1ccc(-c2nc(SCC(=O)NCCN3C(=O)CSC3=O)[nH]c2-c2ccc(C)cc2)cc1", "z-score": 0.00784}
{"molecule": "N#CC1(Cc2ccc(Cl)cc2)c2ccccc2C=CN1C(=O)c1ccccc1", "note": "(stereo unspecified)", "z-score": -0.14}
{"molecule": "O=C(NCCCn1ccnc1)c1ccc(S(=O)(=O)N2CCCCCC2)cc1", "z-score": 0.0814}
{"molecule": "Cc1cccc(CN2CCN(CC(=O)NCc3ccc(F)cc3)C2=O)c1", "z-score": 0.323}
{"molecule": "CS(=O)(=O)N1CCN(C(=O)C(Sc2ccccc2)c2ccccc2)CC1", "note": "(stereo unspecified)", "z-score": -0.0501}
{"molecule": "Cc1ccc(OC(=O)COc2ccccc2C)c(-n2nc3ccccc3n2)c1", "z-score": -0.295}
{"molecule": "Cc1ccc(-n2nnnc2SCC(=O)N2CCCCC2)cc1", "z-score": 0.332}
{"molecule": "Cc1ccc(S(=O)(=O)C2(C(=O)N3CCCCC3C)CC2)cc1", "note": "(stereo unspecified)", "z-score": 0.622}
{"molecule": "CN(C)CCCNC(=O)CCc1nc2ccccc2c(=O)[nH]1", "z-score": -0.157}
{"molecule": "CCSc1cc(N2CCCC2)nc(-c2ccccc2Cl)n1", "z-score": -0.31}
{"molecule": "CCOC(=O)c1c(C)oc2ccc(O)c(CN3CCCCC3)c12", "z-score": "active: 3.52"}
{"molecule": "CC1(C)Cc2c(sc3nc(SCC(=O)NCc4ccco4)n(-c4ccccc4)c(=O)c23)CS1", "z-score": -0.145}
{"molecule": "Cc1cc(C)c(S(=O)(=O)NCCn2c(C)cc3ccccc32)c(C)c1", "z-score": 0.132}
{"molecule": "CC(=O)Nc1ccn(Cc2c(F)cccc2Cl)n1", "z-score": 0.193}
{"molecule": "COc1ccccc1C(=O)N/C(=C/c1ccccc1)C(=O)NC(CCSC)C(=O)O", "note": "(stereo unspecified)", "z-score": -0.217}
{"molecule": "CC(=O)N/C(=C/c1ccccc1)C(=O)NC(Cc1ccccc1)C(=O)O", "note": "(stereo unspecified)", "z-score": 0.151}
{"molecule": "CSCCC(NC(=O)c1ccccc1)C(=O)Nc1ccc(C)cc1", "note": "(stereo unspecified)", "z-score": -0.151}
{"molecule": "Cc1ccc(CNCc2cccnc2)cc1", "z-score": -0.18}
{"molecule": "COc1ccc(C(=O)N=c2sc3c(C)ccc(OC)c3n2C)cc1", "z-score": -0.723}
{"molecule": "COc1ccc(/C=C2\\CCCC3C2=NN(C(=O)c2scnc2C)C3c2ccc(OC)cc2)cc1", "note": "(stereo unspecified)", "z-score": -0.049}
{"molecule": "Cc1cc(/C=C(/C#N)C(=O)O)c(C)n1CCC(C)C", "z-score": 0.00791}
{"molecule": "CCOC(=O)c1c(C)n(-c2ccc(C)cc2)c2c(CC(C)=O)c(Br)c(OC)c(O)c12", "z-score": -0.0818}
{"molecule": "O=C1c2cccc3cccc(c23)C(=O)N1c1ccncc1", "z-score": 0.117}
{"molecule": "Cc1ccccc1NC(=O)C(C)c1ccc(-c2ccccc2)c(F)c1", "note": "(stereo unspecified)", "z-score": 0.231}
{"molecule": "CCOC(=O)c1nc(N)c(=O)n(-c2ccc(C)cc2)n1", "z-score": 1.41}
{"molecule": "CC(=O)c1c(N2CCOCC2)nc(=S)n(-c2ccccc2)c1C", "z-score": 0.135}
{"molecule": "COc1ccc(C2C(C(=O)c3cccs3)=C(O)C(=O)N2c2nnc(C)s2)cc1OC", "note": "(stereo unspecified)", "z-score": 0.279}
{"molecule": "O=C(COc1ccc(C(=O)c2ccc(F)cc2)cc1)NCc1ccc(F)cc1", "z-score": -0.24}
{"molecule": "Cc1sc2c(c1C)c(=O)nc1scc(CC(=O)O)n12", "z-score": 0.0284}
